Test results published in the supplement of paper PMC10126150.
Sequences with one replicate were seen in a single cluster, so their values are uncertain.

System: ATP
Assay: switch fluorescence ratio, 500 uM ATP over buffer (Cy3 cluster intensity, sum of 5 cycles each) (fold (ratio)); higher = stronger signal-on switching upon ATP binding; sequences stand for … in TCGTCGGCAGCGTCAGATGTGTATAAGAGACAGTTTTTTTTTTTTTTTTTTTTTTTTT…TC
Conditions: aptamer strand: ATP DNA aptamer (quencher-CACCTGGGGGAGTATTGCGGAGGAAGG + anchor), 100 nM annealed; ATP concentration: 500 uM; one replicate
Procedure, shortened: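 Cy3-labelled switching-strand clusters on a modified Illumina MiSeq flow-cell were annealed to 100 nM quencher-labelled ATP aptamer, imaged in selection buffer, then imaged after 15 min with 500 uM ATP at 22 °C. Five buffer/ATP cycles ran, with NaOH stripping and re-annealing between them. The fluorescence ratio is summed target-cycle over summed buffer-cycle Cy3 intensity per cluster, averaged per switch-domain sequence. Clusters outside 100-1000 RFU were excluded.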
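Also: ATP exposure 15 min at 22 °C before imaging.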

Row | Sequence | switch fluorescence ratio
1 | GGTTTGACAG | 0.994
2 | TATCTCAGCA | 1.05
3 | GACTAACGAT | 1.23
4 | TGGCGCCCGC | 1.02
5 | TAAGCGACGC | 1.07
6 | GTATCAGCGG | 0.982
7 | ATCTTTTGTG | 0.933
8 | TCATGGGAA | 1
9 | CTCGTTAAGG | 1.01
10 | TGACCGTTTG | 1.01
11 | CCTAATGGTA | 0.985
12 | ACCCCGATTG | 1.16
13 | ACGGTGGGGT | 1.02
14 | GCATTTTCCT | 0.999
15 | GGGGCAAACG | 1.03
16 | AAGACCCCTG | 0.94
17 | AAGGATAAAT | 0.981
18 | CTGTGTCCCG | 1.01
19 | CTTTTGCTCT | 1.01
20 | GCCTAGTGGG | 1.01
21 | TAATGGAGCA | 0.973
22 | AGTCCTGCCA | 1.02
23 | GGGATGACAC | 0.987

Row | Sequence | switch fluorescence ratio
24 | AAAAAATGGT | 0.971
25 | AGCGGTGGAG | 0.994
26 | TTAGGTTAAC | 1.01
27 | GTGTTCATGT | 0.974
28 | GGAATCATA | 1.01
29 | ACTGTGCGT | 0.99
30 | TAAGCGGATT | 1
31 | TGAACTGT | 0.968
32 | AACACCACAG | 1.3
33 | CATTGTAGTA | 0.958
34 | CCTTGCACTG | 1.41
35 | ACATTGGCCC | 0.985
36 | GTGTGCACGG | 0.95
37 | GGGGACCCCG | 1.03
38 | TGATGGGGC | 1.08
39 | TCAAGACCTC | 0.991
40 | TACATCCAGA | 0.961
41 | GTGGCCCCAA | 1.02
42 | TGGGTTGCTT | 1.02
43 | TAAATGTACG | 1.02
44 | TCGGTGCTAG | 0.999
45 | CTTATGTGAT | 0.942
46 | TCATAAAGGT | 1.06

Row | Sequence | switch fluorescence ratio
47 | CGTTTTGTCT | 1.01
48 | GCAGGCCCAG | 0.991
49 | CGGTGGCTCG | 1.04
50 | AGGGTAGTAA | 0.976
51 | TCACAAAAC | 1.07
52 | GACATTGGTA | 0.97
53 | ATTTGTCTCT | 0.998
54 | TAGATTATTG | 1.08
55 | GAGTCAAATT | 0.991
56 | AGCAGTCTTA | 0.964
57 | CGGAGGGCGG | 1.07
58 | CGGTCAGCAT | 1.18
59 | CGTTACTGCT | 1.01
60 | AGTTAGGGGG | 0.996
61 | CATGTTCAAC | 1.03
62 | AAATCATTGA | 0.992
63 | TAGTCGCCGC | 0.967
64 | AGCATATTGA | 1.02
65 | AAGAGGAGAA | 0.972
66 | CTGATATCAG | 1.02
67 | ATCATAAGTC | 1.03
68 | TACGTAACGG | 1.25
69 | ATAGCGCCGG | 1.02

Row | Sequence | switch fluorescence ratio
70 | TGCCTAACGC | 1.03
71 | TGCTAACATC | 1.05
72 | GTATTTCGAT | 0.985
73 | GCGGACACTA | 1.03
74 | GGTTTTAATA | 0.987
75 | AGTCCGCCTC | 2.79
76 | TACAAAAAGA | 1.03
77 | AGCTCGTAAT | 1.05
78 | GACTTTAGAT | 1.04
79 | GTATGACAGG | 0.971
80 | GAGTGAGCA | 1.02
81 | GCAAGCCGTT | 1.08
82 | CATTGGACGC | 0.999
83 | AATGTCGGTA | 1.01
84 | ACAATTCCAA | 1.01
85 | GGTACAGCTT | 0.973
86 | AATGCGGTTT | 1
87 | CGGATACTGT | 0.928
88 | GTGCAATTGC | 1
89 | CGAACTATAT | 1.04
90 | TGCATGATGG | 1
91 | GCCGGGCAA | 1.1
92 | GCATGAATTA | 1.01

Row | Sequence | switch fluorescence ratio
93 | ATTTAAGTCT | 1.02
94 | AGGCGAAACA | 1.03
95 | GCCCAGATTT | 1.04
96 | GCGTCATATG | 0.993
97 | ACTCCCGTTT | 1.2
98 | CCATTAGAC | 1.02
99 | CAGTCCATTG | 1.01
100 | CGGGTCGGAA | 1.03
101 | AGCGAATACG | 1.63
102 | AAATAATCC | 1.07
103 | AGGATAATCT | 0.966
104 | CGGTCTTGTT | 0.998
105 | AGGGAGACCG | 1.03
106 | AACCAGATGA | 1.06
107 | TGCCCTCTAA | 1.04
108 | GACTACGGGC | 1.15
109 | TCTGGCGGGC | 1.01
110 | GGCTCGTTAA | 0.989
111 | CATAGCCAGG | 1.21
112 | TACGGGTATC | 1.09
113 | GAGACACCGA | 0.998
114 | ATACGTTAGG | 1.06
115 | TTAATCCTGC | 1.04

Row | Sequence | switch fluorescence ratio
116 | CTACGTAC | 1.95
117 | CATTTTTATG | 1.02
118 | AGGCAGACCA | 0.97
119 | CCGTGCTGGA | 1.05
120 | GATTTCGTTG | 0.993
121 | TAAGTGTCCA | 0.99
122 | AGGCGACCAT | 1.01
123 | GGACTCACTG | 1.01
124 | GTTCAGTGTT | 1.04
125 | AGGTGCTCTC | 1.06
126 | AACAGGCAGG | 1.09
127 | GACTAGAAGA | 1.02
128 | TGTGGCAAGG | 1.02
129 | CTGGGGTTCC | 0.99
130 | CATTGGATTT | 0.984
131 | GCTGACGGTG | 0.993
132 | TGCGGCTGAG | 0.943
133 | CGCTCTGGTA | 1.01
134 | TAATTGGCAG | 0.989
135 | GGGAACGTTG | 1.01
136 | TAATGCCAAT | 1
137 | GGAGTAATGT | 1.29
138 | AGTTATCAAT | 0.985

Row | Sequence | switch fluorescence ratio
139 | TGACCGTCAG | 0.915
140 | TGTTAGTCGG | 1
141 | CGCGGGATTC | 1.11
142 | TGGTAGCGT | 1.02
143 | CCTTTTGTTG | 0.96
144 | TGCTACCAGC | 1.03
145 | GTTGGTGGTA | 0.983
146 | TAGCCAGAAT | 0.952
147 | AAGGGCATGG | 1.02
148 | GGCGTCAAGA | 0.989
149 | AAGTACAGTT | 1.24
150 | GGTTCTAGAT | 1.01
151 | AGCAGATAGT | 1.09
152 | ACTTTAGGTA | 1.03
153 | CCCCAGAGCC | 1.41
154 | TCGAGGCCTG | 0.947
155 | TAAGTAGGCT | 0.981
156 | GAGCTATCTA | 0.997
157 | TCGCTATCCA | 1.1
